This list was built around the results that the source calls inconclusive (neither active nor inactive); the mix of calls is not that of the screen. A potency beside an inconclusive call is a rough fit, not a confirmed value. Active and inactive are the calls of the source. Calls follow the shape of the dose curve; as a rule, active = well fitted inhibition curve with a large enough effect; inconclusive = small, poorly fitted or top-dose-only effect; inactive = flat fitted curve, though single readings scatter.
biological target: Dual specificity protein kinase CLK4 (Homo sapiens) (UniProt Q9HAZ1); assay: qHTS Assay for Inhibitors of CDC-like Kinase 4 (Kinase-Glo Assay) (AID 1770); conditions: recombinant Clk4, Kinase-Glo ATP depletion luminescence; series mostly up to 66.7 µM; also: nearly all actives have a fitted effect of over 65% in size
Chain of UniProt Q9HAZ1 (Q9HAZ1 whole entry, looked up): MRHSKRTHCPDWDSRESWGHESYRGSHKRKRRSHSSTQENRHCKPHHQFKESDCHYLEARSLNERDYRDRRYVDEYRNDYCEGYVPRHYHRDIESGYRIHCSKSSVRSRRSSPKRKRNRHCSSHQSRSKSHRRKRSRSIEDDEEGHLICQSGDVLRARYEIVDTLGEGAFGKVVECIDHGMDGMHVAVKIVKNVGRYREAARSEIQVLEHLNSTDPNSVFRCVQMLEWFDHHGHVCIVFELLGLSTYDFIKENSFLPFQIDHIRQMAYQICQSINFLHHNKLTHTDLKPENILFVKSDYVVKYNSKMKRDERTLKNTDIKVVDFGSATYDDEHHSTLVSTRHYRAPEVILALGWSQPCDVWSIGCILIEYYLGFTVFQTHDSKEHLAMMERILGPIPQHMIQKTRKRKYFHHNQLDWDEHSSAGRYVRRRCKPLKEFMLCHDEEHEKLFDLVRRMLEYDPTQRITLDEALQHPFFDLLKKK
Method in brief: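 Luminescent ATP-depletion read-out (Kinase-Glo) after 4.5 h room-temperature reaction of Clk4 (25 nM final) with RS peptide (100 uM) and ATP (1 uM), pH 7.5 Tris buffer with MgCl2 and DTT.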
Potency is read from the fitted curve at half-maximal effect; tags tell the direction and shape of the fitted curve.

Potency, active:
Cc1cccc(CNc2ccnc(-c3cccc(C#N)c3)n2)c1 11.2 µM
c1ccc(CNc2ncncc2-c2ccc3c(c2)OCO3)cc1 6.31 µM
CCNc1ncc2ncc(=O)n(C3CC3)c2n1 14.1 µM
c1cncc(CNc2ncnc3ccc(-c4ccoc4)cc23)c1 2.82 µM

Potency, inconclusive:
COc1cccc(-c2cncnc2NCc2cnc(C)cn2)c1 28.2 µM [falling, partial curve]
COc1ccc2[nH]cc(CCNc3ccnc(-c4ccccc4C)n3)c2c1 31.6 µM [falling, partial curve]
COc1ccc2[nH]cc(CCNc3nc(-c4ccc(N(C)C)cc4)nc4ccccc34)c2c1 15.8 µM [falling, partial curve]
N#Cc1cccc(-c2cncnc2NCc2cccs2)c1 20 µM [falling, partial curve]
c1ccc(CNc2cc(-c3ccoc3)ncn2)cc1 28.2 µM [falling, partial curve]
c1ccc(CNc2ncncc2-c2ccoc2)cc1 31.6 µM [falling, single point]
COc1cccc(Cn2c(=O)c(-c3cccc(C#N)c3)nc3cnc(OC)nc32)c1 11.2 µM [falling, partial curve]
COc1ccccc1-c1cc(NCc2cnc(C)cn2)ncn1 17.8 µM [falling, partial curve]
c1cncc(CNc2cc(-c3ccoc3)ncn2)c1 35.5 µM [falling, single point]

Potency, inactive:
O=c1c(-c2cccc(Cl)c2)nc2cncnc2n1C1CC1
CCNc1ncc2nc(-c3ccc(F)cc3)c(=O)n(C)c2n1
Fc1ccc(Nc2ncncc2-c2ccccc2C(F)(F)F)cc1
COc1ccc(-c2nc3cnc(Nc4ccccc4)nc3n(C[C@H]3CCCO3)c2=O)cc1
Cn1cc(-c2nc3cnc(Oc4cccc(Cl)c4)nc3n(C3CC3)c2=O)c2ccccc21
CN(C)c1ncc2nc(-c3cc(F)cc(F)c3)c(=O)n(Cc3ccc(F)cc3)c2n1
COCCn1c(=O)c(C)nc2cnc(OC)nc21
CN1CCN(c2ncc3ncc(=O)n(CCC#N)c3n2)CC1
CN(Cc1ccco1)c1ncncc1-c1ccccc1C(F)(F)F
COc1cccc(Cn2c(=O)c(-c3cccs3)nc3cncnc32)c1
COCCNc1ccnc(-c2ccccc2C)n1
CCNc1ncc2nc(-c3ccccc3)c(=O)n(C)c2n1
c1ccc(CNc2ncncc2-c2cccnc2)cc1
O=c1c(-c2ccccc2)nc2cnc(N3CCOCC3)nc2n1C[C@H]1CCCO1
N#CCCn1c(=O)c(-c2cc(F)cc(F)c2)nc2cnc(N3CCOCC3)nc21
COc1ccc2[nH]cc(CCNc3ccnc(-c4ccccc4C(F)(F)F)n3)c2c1
COc1ccccc1CNc1ccnc(-c2ccc(N(C)C)cc2)n1

biological target: Dual specificity protein kinase CLK4 (Homo sapiens) (UniProt Q9HAZ1); assay: qHTS Assay for Inhibitors of CDC-like Kinase 4 (ADP-Glo Assay) (AID 1771); conditions: recombinant CLK4, ADP-Glo luminescence; series mostly up to 80 µM; also: nearly all actives have a fitted effect of over 70% in size
Method in brief: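 Luminescence from ADP-Glo reports ADP produced by 25 nM Clk4 acting on 100 uM RS repeat peptide with 1 uM ATP over 1 hr at room temperature; residual ATP is depleted before ADP is converted to ATP for detection.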

Potency, inconclusive:
COc1cccc(-c2cncnc2NCc2cnc(C)cn2)c1 35.5 µM [falling, single point]
Clc1ccccc1-c1cc(NCc2ccccc2)ncn1 35.5 µM [falling, single point]
CCNc1ncc2nc(C)c(=O)n(C[C@H]3CCCO3)c2n1 39.8 µM [falling, single point]
COc1ccc2[nH]cc(CCNc3ccnc(-c4ccccc4C)n3)c2c1 28.2 µM [falling, single point]
c1ccc(CNc2ncncc2-c2ccoc2)cc1 31.6 µM [falling, single point]
COc1cccc(Cn2c(=O)c(-c3cccc(C#N)c3)nc3cnc(OC)nc32)c1 14.1 µM [falling, partial curve]

Potency, active:
O=c1cnc2cnc(Nc3ccccc3)nc2n1Cc1cccs1 2 µM
c1cncc(-c2ccc3ncnc(NC4CCNCC4)c3c2)c1 15.8 µM
COc1ccc2[nH]cc(CCNc3ccnc(-c4ccc(N(C)C)cc4)n3)c2c1 14.1 µM
COc1ccc(Oc2ncc3ncc(=O)n(-c4ccc(OC)cc4)c3n2)cc1 2 µM

Potency, inactive:
COc1ccc(Oc2ncc3nc(C)c(=O)n(-c4ccccc4)c3n2)cc1
COCCn1c(=O)c(-c2cccc(C#N)c2)nc2cnc(Oc3ccc(OC)cc3)nc21
Cc1cnc(CNc2ncncc2-c2ccoc2)cn1
O=c1cnc2cnc(Oc3ccccc3)nc2n1C1CC1

biological target: Dual specificity protein kinase CLK4 (Homo sapiens) (UniProt Q9HAZ1); assay: qHTS Assay for Inhibitors of CDC-like Kinase 4 (ADP-FP Assay) (AID 1795); conditions: Transcreener ADP fluorescence polarization; series mostly up to 50 µM;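 also: recombinant human CLK4 phosphorylating RS repeat peptide at 1 µM ATP; nearly all actives have a fitted effect of over 60% in size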
Method in brief: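 Kinase activity was measured as ADP production using Transcreener orange tracer (4 nM) and ADP antibody (1 ug/mL) fluorescence polarization, with ADP calculated from a calibration curve. The 1 h reaction contained 6.25 nM Clk4, 1 uM ATP and 100 uM RS peptide at pH 7.5 with Mg2+.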

Potency, inconclusive:
O=c1cnc2cnc(Nc3ccccc3)nc2n1Cc1cccs1 0.708 µM [falling, full curve]
Clc1ccccc1-c1cc(NCc2ccccc2)ncn1 25.1 µM [falling, single point]
Cc1cnc(CNc2ncncc2-c2ccoc2)cn1 10 µM [falling, partial curve]
COc1ccccc1-c1cc(NCc2cnc(C)cn2)ncn1 12.6 µM [falling, partial curve]

Potency, inactive:
Cn1cc(-c2nc3cnc(Oc4cccc(Cl)c4)nc3n(C3CC3)c2=O)c2ccccc21
COc1ccc2[nH]cc(CCNc3ccnc(-c4ccc(N(C)C)cc4)n3)c2c1

Potency, active:
COc1ccc(Oc2ncc3ncc(=O)n(-c4ccc(OC)cc4)c3n2)cc1 4.47 µM
